# PubChem BioAssay AID463173 (ICCB-Longwood Screening Facility, Harvard Medical School, 2010)
# Hit rate of the full screen: of about 52,000 compounds, about 1,700 (3.3%) were called active. No stated cut-off is given here; in the data, active means survival mostly below about 52% (no sharp cut-off); inactive means mostly above about 56%. The list shows a part of the results.
# Test system: Wild type
# Test: S. aureus survival, RN4220 and DeltatarO strains – OD600, teichoic acid synthesis inhibitors, primary screen (AID 463173)
# Conditions: S. aureus RN4220 wild type/DeltatarO growth, OD600, 18 h, hits give low values, screened at 18.75 µg/mL (by protocol)
row,Compound,survival
1,COc1ccc(OC)c(CCNC(=O)CN2C(=O)COc3ccc(S(=O)(=O)N4CCC(C)CC4)cc32)c1,inactive: 72%
2,COc1ccc(-c2nc3ccccc3o2)cc1NC(=O)CSc1ccc(Cl)cc1,inactive: 73%
3,O=C(CCSCc1ccccc1F)N1CCN(c2ccc(Cl)cc2)CC1,inactive: 55%
4,Cc1nn(-c2ccc(N3CCCC3)nn2)c(C)c1CCC(=O)NCc1ccccc1F,inactive: 85%
5,CCC1CCCCN1CCCNC(=O)c1c(O)nc2c(C)cccn2c1=O (stereo unspecified),inactive: 88%
6,CCCN1CCN(CCNC(=O)Nc2cc(C)ccc2OC)CC1,inactive: 87%
7,COc1cc2c(C(=O)Nc3ccc(C)cc3Br)cn(C)c(=O)c2cc1OC,inactive: 124%
8,CCOC(=O)c1ccc(NC2=CC(c3ccc(O)c(OCC)c3)N(c3ccc(C(=O)OCC)cc3)C2=O)cc1 (stereo unspecified),inactive: 68%
9,CCOc1ccccc1NC(=O)c1sc2nc(-c3ccc(OC)cc3)ccc2c1N,inactive: 81%
10,COc1ccc(-n2c(/C=C/c3cccc4ccccc34)nc3ccccc3c2=O)cc1Cl,inactive: 83%
11,O=C(Cc1ccc(F)cc1)N1CCC(c2nc3c(nnn3Cc3ccc(F)cc3)c(=O)[nH]2)CC1,inactive: 99%
12,N#Cc1ccccc1Cn1c(=O)n(CCCCC(=O)NCc2ccc3c(c2)OCO3)c(=O)c2ccccc21,inactive: 113%
13,Cc1ccc(CNC(=O)c2nc(-c3ccc(Cl)cc3)n3c2CCCCC3)cc1,inactive: 68%
14,Cc1ccccc1C(=O)Nc1nnc(S(=O)(=O)N(C)Cc2ccc(Cl)cc2)s1,inactive: 99%
15,O=C(NCCSCc1ccccc1Cl)C1CCN(S(=O)(=O)Cc2ccccc2)CC1,inactive: 86%
16,COc1ccc(OCC(=O)Nc2ccc(O)c(-c3nc4ccccc4s3)c2)cc1,inactive: 60%
17,COc1ccc(-n2cccc2C=C(C#N)C#N)cc1,inactive: 116%
18,COc1ccc(CC(=O)N2CC(=O)Nc3ccc(Br)cc3C2c2ccc(F)cc2)cc1 (stereo unspecified),inactive: 64%
19,Cc1ccc(CN(C(=O)COc2ccc(C(C)C)cc2)C2CCS(=O)(=O)C2)o1 (stereo unspecified),inactive: 95%
20,CCCn1c(=O)c2sccc2n2c(CCCC(=O)Nc3ccccc3OCC)nnc12,inactive: 77%
21,Cc1cccc(NC(=O)c2sc3nc4c(cc3c2N)CN(Cc2ccccc2)CC4)c1,inactive: 92%
22,COc1ccccc1NC(=O)c1oc2ccccc2c1NC(=O)c1ccccc1C(F)(F)F,inactive: 90%

row,Compound,survival
1,CN(C)CCC(=O)c1ccc2c(c1)OCO2,inactive: 98%
2,Brc1cccc(Nc2nc3nonc3nc2NCc2ccco2)c1,inactive: 34%
3,CCOc1ccccc1NC(=O)C(C)Sc1nc(-c2ccccc2)c(C#N)c(=O)[nH]1 (stereo unspecified),inactive: 84%
4,CCOc1ccc(/C=C/c2nc(C#N)c(NC(C)CC)o2)cc1 (stereo unspecified),inactive: 82%
5,CC(C)C(=O)N1CCC(CN=CC2=C(O)CC(C)(C)CC2=O)CC1,inactive: 103%
6,CCc1cccc(NC(=O)c2cnc(SC)nc2-c2ccccc2)c1,inactive: 91%
7,Cc1nc2sc(C(=O)Nc3ccc(F)cc3)c(N)c2c(-c2ccc(Br)cc2)c1C(=O)Nc1ccc(Cl)cc1,inactive: 88%
8,Cc1ccc(C)c(Cn2c(=O)n(Cc3ccc4c(c3)OCO4)c(=O)c3oc4ccccc4c32)c1,inactive: 89%
9,CCCCOc1ccc(C(=O)NCCc2sc(-c3cccc(F)c3)nc2C)cc1,inactive: 64%
10,O=C(Nc1ccc(NC(=O)c2cccs2)cc1)c1cccc(Br)c1,inactive: 120%
11,Cc1cc2nc(-c3ccc(OCc4ccc(F)cc4)cc3)cc(C(F)(F)F)n2n1,inactive: 59%
12,COC(=O)c1ccc(NC(=O)CC2C(=O)N(c3ccc(F)cc3)C(=O)N2Cc2ccc(OC)cc2)cc1 (stereo unspecified),inactive: 131%
13,COc1ccc(-c2cn3nc(N4CCC(C(=O)Nc5cccc(OC)c5)CC4)sc3n2)cc1,inactive: 110%
14,COc1ccc(N2CCN(S(=O)(=O)c3ccc(OC)c(-c4noc(C)n4)c3)CC2)cc1,inactive: 97%
15,O=C(Cn1ncc2c3ccccc3n(Cc3ccc(Cl)cc3)c2c1=O)NCc1cccs1,inactive: 89%
16,CCOc1ccc(Sc2cc(C(=O)NC(C)CC)c3ccccc3n2)cc1 (stereo unspecified),inactive: 135%
17,CCc1ccc(NC(=O)CSc2nccn2-c2cccc(C)c2C)cc1,inactive: 85%
18,CCc1ccc(NC(=O)c2ccc(F)c(S(=O)(=O)N(C)C3CCCCC3)c2)cc1,inactive: 71%
19,Cc1cc(NC(=O)CSc2nc3c([nH]c4ccccc43)c(=O)n2-c2ccccc2)no1,inactive: 64%
20,O=c1cc(-c2ccc(F)cc2)nc(SCc2nc(-c3cccc(Cl)c3)no2)[nH]1,inactive: 73%
21,O=C(C1CCCN(S(=O)(=O)c2ccc(Br)s2)C1)N1CCN(c2ccc(F)cc2)CC1 (stereo unspecified),inactive: 71%
22,COc1ccc(NC(=O)CSc2nc3ccncc3[nH]2)c(OC)c1,inactive: 75%

row,Compound,survival
1,Cc1ccc(C2CC(=O)N(Cc3ccccc3)c3c2c(C)nn3-c2nc(C)cc(C)n2)cc1 (stereo unspecified),inactive: 82%
2,CC1CN(C(=O)N2CCC(C(=O)NCCC3=CCCCC3)CC2)c2cc(Cl)ccc2O1 (stereo unspecified),inactive: 86%
3,Cc1ccc2c(=O)cc(C(=O)Nc3sc4c(c3C(N)=O)CCCC4)oc2c1,inactive: 85%
4,Cc1ccc(Cl)cc1-n1ncc2c(NCCCn3ccnc3)ncnc21,inactive: 72%
5,O=C(C1CCN(S(=O)(=O)Cc2ccccc2)CC1)N1CCN(c2ccc(F)cc2)CC1,inactive: 83%
6,Cc1ccc(C)n1-c1c(C(=O)NCCCN2CCN(c3ccc(F)cc3)CC2)sc2ncccc12,inactive: 73%
7,Cc1ccc(C)c(CN2C(=O)C3(c4ccccc42)N(c2cccc(C(F)(F)F)c2)C(=O)CS3(=O)=O)c1 (stereo unspecified),inactive: 84%
8,COc1ccc(C2C(=O)N(C3CCCCC3)CC(=O)N2CCc2ccc(OC)c(OC)c2)cc1 (stereo unspecified),inactive: 76%
9,COc1cc(NC(=O)c2nc3ccccc3nc2C)cc(OC)c1OC,inactive: 71%
10,CCOC(=O)c1cc(C)n(CC2CCC(C(=O)Nc3ccc(OCC)cc3)CC2)c1C (stereo unspecified),inactive: 82%
11,Cc1ccc2oc(-c3cc(NC(=O)c4ccc5c(c4)OCCO5)cc(C)c3O)nc2c1,inactive: 79%
12,COc1ccc(NC(=O)CCn2nc(-c3ccccc3OC)c3c(C)cc(C)nc32)cc1,inactive: 100%
13,CCC(C(=O)N1CCN(c2ccccc2F)CC1)n1nc(C)c2sc3ccccc3c2c1=O (stereo unspecified),inactive: 71%
14,COc1cc(CN(C(=O)c2cccc(Cl)c2)c2ccccn2)cc(OC)c1OC,inactive: 81%
15,CC1=C(C(=O)OCC(C)C)C(c2ccc(OCc3ccccc3)cc2)N2C(=O)CCSC2=N1 (stereo unspecified),inactive: 82%
16,Cc1ccc(-n2nc(C(=O)Nc3ccc(Cl)cn3)c3c4ccccc4n(C)c3c2=O)cc1,inactive: 127%
17,Cc1ccccc1OCc1ccc(-c2nc(C#N)c(N3CCN(C)CC3)o2)o1,inactive: 87%
18,Cc1ccc(Cl)cc1N1CCN(C(=O)c2cccn3c(=O)c4cc(Cl)ccc4nc23)CC1,inactive: 71%
19,CCCc1nn2c(=O)cc(COc3ccc(/C=C(\C#N)C(=O)Nc4ccc(F)cc4)cc3)nc2s1,inactive: 95%
20,CCN(CC)C(=O)Cn1c(SCCOc2ccc(Cl)cc2)nc2ccccc21,inactive: 66%
21,COc1ccc(NC(=O)CSc2nc(-c3ccco3)cc(C(F)(F)F)n2)c(OC)c1,inactive: 65%
22,CCCCN(C)C(=O)C1CCC(CNS(=O)(=O)c2ccc3c(c2)CC(C)N3C(C)=O)CC1 (stereo unspecified),inactive: 99%

row,Compound,survival
1,O=C(CCS(=O)(=O)c1cc2c(cc1Cl)NC(=O)CO2)NCCc1ccc(Cl)cc1,inactive: 116%
2,CC(=O)N1c2ccccc2C(=O)C1N1CCN(c2ccc(F)cc2)CC1 (stereo unspecified),inactive: 67%
3,CC(=O)N(Cc1cccnc1)Cc1cc2cc3c(cc2[nH]c1=O)OCCO3,inactive: 103%
4,COc1ccc(NC(=O)c2ccc(CNS(=O)(=O)c3ccc4c(c3)C(C)(C)C(=O)N4C)cc2)cc1,inactive: 114%
5,COc1cccc(CNC(=O)C2CCCN(c3ncnc4onc(-c5ccc(F)cc5)c34)C2)c1 (stereo unspecified),inactive: 99%
6,Cc1c(C)n(Cc2ccccc2)c2ccc(C(=O)NCCc3ccccc3Cl)cc12,inactive: 72%
7,CC(C)OCCCNC(=O)CN1C(=O)CSc2ccc(S(=O)(=O)N3CCCCC3)cc21,inactive: 73%
8,Cc1oc(C(=O)O)cc1CSC(C)C(=O)O (stereo unspecified),inactive: 115%
9,O=C(Nc1ccc2c(c1)N(C1CCCC1)C(=O)c1ccccc1S2)c1cccc(F)c1,inactive: 53%
10,CC(C)Oc1ccc(CNC(=O)CCn2c(=O)c3cccn3c3ccc(F)cc32)cc1,inactive: 75%
11,COc1cccc(-n2c(=O)c3c(C)c(C(=O)N(C)C)sc3n(CC(=O)Nc3ccc(C)cc3Cl)c2=O)c1,inactive: 88%
12,O=C1CC(c2nc(-c3cccc(Cl)c3)no2)CN1c1ccc2c(c1)OCCO2 (stereo unspecified),inactive: 148%
13,Cc1ccc(Cl)cc1NCc1nnc2n1CCCCC2,inactive: 75%
14,O=C(NCCc1csc(-c2cccc(F)c2)n1)c1ccc(Br)o1,inactive: 73%
15,O=c1c2cc3sccc3n2cc(-c2ccccc2)n1-n1cccc1,inactive: 116%
16,Cc1n[nH]c(C)c1S(=O)(=O)N(CC(=O)NCc1ccccc1Cl)c1ccc(C(C)C)cc1,inactive: 67%
17,Cc1ccc(-n2nnnc2C2CCN(S(=O)(=O)c3ccc(OC(F)(F)F)cc3)CC2)cc1,inactive: 115%
18,Cc1ccc(OCC(O)CN2C(=O)NC(C)(C)C2=O)c(Cl)c1 (stereo unspecified),inactive: 110%
19,CCN(C(=O)Cn1c(=O)oc2cc(S(=O)(=O)N3CCCC3)ccc21)c1cccc(C)c1,inactive: 80%
20,CCOc1ccccc1CNC(=O)CCc1cn(Cc2ccc(Cl)cc2)c2ccccc12,inactive: 77%
